Results as given in the supplement of paper PMC10126150.
Sequences with one replicate were seen in a single cluster, so their values are uncertain.

test system: ATP; assay: switch fluorescence ratio, 500 uM ATP over buffer (Cy3 cluster intensity, sum of 5 cycles each) (fold (ratio)); higher = stronger signal-on switching upon ATP binding; sequences stand for … in TCGTCGGCAGCGTCAGATGTGTATAAGAGACAGTTTTTTTTTTTTTTTTTTTTTTTTT…TC; settings: aptamer strand: ATP DNA aptamer (quencher-CACCTGGGGGAGTATTGCGGAGGAAGG + anchor), 100 nM annealed; ATP concentration: 500 uM; one replicate
Outline: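 Values give the fluorescence ratio for each switch-domain sequence, averaged from per-cluster ratios of summed target-cycle to summed buffer-cycle Cy3 intensity. The Cy3-labelled switching-strand clusters sat on a modified Illumina MiSeq flow-cell, were annealed to 100 nM quencher-labelled ATP aptamer, and were imaged in selection buffer, then after 15 min with 500 uM ATP at 22 °C. Five cycles ran with NaOH stripping and re-annealing between them, and clusters outside 100-1000 RFU were excluded.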
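Further: ATP exposure 15 min at 22 °C before imaging.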

Row | Sequence | switch fluorescence ratio
1 | AGGGTACATG | 1.01
2 | AGGGTAGAAC | 1.02
3 | AGGGTCCTGT | 0.993
4 | AGGGTCGTCA | 1.06
5 | AGGGTCTCTC | 0.984
6 | AGGGTCTGCT | 0.995
7 | AGGGTGAGGA | 1.02
8 | AGGGTGCGCG | 0.972
9 | AGGGTGTTTA | 0.989
10 | AGGGTTTG | 0.984
11 | AGGTAAAACG | 1.03
12 | AGGTAAAATC | 0.984
13 | AGGTAAATCA | 1.02
14 | AGGTAAGCTT | 0.993
15 | AGGTAATTAC | 0.966
16 | AGGTACACCC | 1.07
17 | AGGTACTCCC | 1.4
18 | AGGTAGCACT | 1.03
19 | AGGTAGCGGA | 0.992
20 | AGGTAGTCGG | 0.981
21 | AGGTATATAG | 0.97
22 | AGGTATGTGC | 0.975
23 | AGGTCAAATA | 1
24 | AGGTCAGATA | 1.03
25 | AGGTCGGAGG | 1.01
26 | AGGTCTGACG | 1.85

Row | Sequence | switch fluorescence ratio
27 | AGGTGAACGG | 0.998
28 | AGGTGAATCT | 0.997
29 | AGGTGAGGAG | 1.01
30 | AGGTGATCCG | 0.916
31 | AGGTGATTAA | 1.02
32 | AGGTGCACGG | 1.03
33 | AGGTGGGCTT | 0.995
34 | AGGTGTATAC | 1.01
35 | AGGTGTCTTT | 1.01
36 | AGGTTACGCC | 1.03
37 | AGGTTCGGTG | 0.978
38 | AGGTTCTTAG | 0.984
39 | AGGTTGGGA | 0.971
40 | AGGTTGTAT | 0.983
41 | AGTAAAAG | 1.03
42 | AGTAAAATCC | 1.04
43 | AGTAAATGGT | 0.955
44 | AGTAAATTT | 1.02
45 | AGTAACCCCA | 1.08
46 | AGTAACTAA | 1.01
47 | AGTAAGGCGG | 0.951
48 | AGTAATTTGG | 0.965
49 | AGTACACCAC | 1.39
50 | AGTACCCTCG | 1.01
51 | AGTACGAGAC | 1.14
52 | AGTACGCAGA | 1.19

Row | Sequence | switch fluorescence ratio
53 | AGTACTAGTT | 0.98
54 | AGTACTCGAG | 1.02
55 | AGTACTCGGA | 0.98
56 | AGTACTTGCA | 1.04
57 | AGTAGAAAAA | 0.988
58 | AGTAGAAATA | 1.04
59 | AGTAGAATAT | 0.962
60 | AGTAGACGC | 1.09
61 | AGTAGATGA | 1
62 | AGTAGGACTA | 1.01
63 | AGTAGGAGGA | 0.987
64 | AGTAGGAGTG | 0.983
65 | AGTAGGATAG | 0.987
66 | AGTAGGCGGG | 0.952
67 | AGTAGGCTAA | 1.06
68 | AGTAGTACTT | 0.975
69 | AGTAGTGCG | 1
70 | AGTAGTGTGG | 0.989
71 | AGTATAATGG | 0.95
72 | AGTATATGA | 0.993
73 | AGTATCTCGC | 0.99
74 | AGTATCTTTT | 1.02
75 | AGTATGACTT | 0.966
76 | AGTATGGCAA | 1.06
77 | AGTATGTGAG | 0.987
78 | AGTATTAGTT | 1.01

Row | Sequence | switch fluorescence ratio
79 | AGTATTTACC | 1.05
80 | AGTCAACAAC | 0.973
81 | AGTCAAGAGT | 1.04
82 | AGTCAATTCA | 0.968
83 | AGTCAGCCTA | 1.04
84 | AGTCAGCGC | 1.02
85 | AGTCAGTCCT | 0.984
86 | AGTCATAATA | 0.96
87 | AGTCATTGCC | 1.04
88 | AGTCCACTCT | 1.03
89 | AGTCCCTAGC | 1.01
90 | AGTCCGATCG | 1.06
91 | AGTCCTCTCT | 0.963
92 | AGTCCTCTTG | 1
93 | AGTCGAGATG | 0.971
94 | AGTCGATCAA | 0.95
95 | AGTCGCAGT | 1.02
96 | AGTCGCGCGT | 1.05
97 | AGTCGGGTTG | 1.01
98 | AGTCGGTTCC | 1.04
99 | AGTCGTGCAG | 0.967
100 | AGTCGTGGAA | 0.998
101 | AGTCTACCGC | 1.02
102 | AGTCTACGAG | 1.01
103 | AGTCTCGACG | 1.01
104 | AGTCTCTGTG | 0.977

Row | Sequence | switch fluorescence ratio
105 | AGTCTCTTGG | 0.97
106 | AGTCTCTTTA | 1.02
107 | AGTCTGAGAT | 0.968
108 | AGTCTGAGGT | 0.96
109 | AGTCTTGGAT | 1.01
110 | AGTCTTGGGA | 1.03
111 | AGTCTTTGCA | 0.972
112 | AGTGAAAAGA | 0.984
113 | AGTGAATCGC | 0.993
114 | AGTGAATGAA | 0.965
115 | AGTGAATGTA | 1.01
116 | AGTGACGCGC | 1.05
117 | AGTGAGAAGT | 1.02
118 | AGTGAGGACT | 0.982
119 | AGTGATAGTA | 0.976
120 | AGTGCAATGT | 1.16
121 | AGTGCATATA | 1.01
122 | AGTGCCGCCA | 1
123 | AGTGCCTGAG | 1.09
124 | AGTGCCTTGA | 0.981
125 | AGTGCTTC | 0.967
126 | AGTGGACTCT | 1.01
127 | AGTGGAGACC | 1.01
128 | AGTGGATTTA | 1.01
129 | AGTGGCGTAC | 1.02
130 | AGTGGGAACT | 1.02

Row | Sequence | switch fluorescence ratio
131 | AGTGGGGAGG | 1.04
132 | AGTGGTCGGG | 1.01
133 | AGTGGTGTT | 0.993
134 | AGTGTAACAG | 0.978
135 | AGTGTATCTC | 0.987
136 | AGTGTATGTT | 1.01
137 | AGTGTCTGGA | 0.982
138 | AGTGTGGGG | 1.05
139 | AGTGTTAAAG | 1.03
140 | AGTGTTCAAC | 0.965
141 | AGTGTTTTTA | 1.02
142 | AGTTAAACGA | 0.999
143 | AGTTAAGGAG | 0.983
144 | AGTTAATTT | 1.02
145 | AGTTACACGG | 1.04
146 | AGTTACCGCA | 1.29
147 | AGTTACGAGG | 1.01
148 | AGTTACTAGC | 1.02
149 | AGTTAGTTCA | 1.04
150 | AGTTATTC | 1.03
151 | AGTTCAGCGG | 0.978
152 | AGTTCCATA | 1.02
153 | AGTTCGCGAC | 1.03
154 | AGTTCGTAAT | 1.03
155 | AGTTCGTTAT | 0.995
156 | AGTTCTCACT | 1.05

Row | Sequence | switch fluorescence ratio
157 | AGTTGAGGCT | 0.966
158 | AGTTGGTAGT | 1.01
159 | AGTTGTCG | 1.09
160 | AGTTGTTAGC | 1.04
161 | AGTTTACCTG | 1.04
162 | AGTTTAGGTT | 0.958
163 | AGTTTCAACA | 1.03
164 | AGTTTCTCGT | 1
165 | AGTTTGGTGA | 1
166 | AGTTTGTTC | 1.01
167 | AGTTTTAGCG | 1.01
168 | AGTTTTCTCA | 1.13
169 | AGTTTTCTGT | 0.962
170 | AGTTTTTCAC | 1.02
171 | ATAAAAATGT | 1.01
172 | ATAAAACTTC | 1.06
173 | ATAAAATCAT | 0.991
174 | ATAAACGG | 1.04
175 | ATAAACGTAA | 1.24
176 | ATAAAGAA | 1
177 | ATAAATACGG | 0.979
178 | ATAAATAGAG | 0.971
179 | ATAAATCTGT | 0.997
180 | ATAAATTGAC | 1.01
181 | ATAACAACTT | 0.995
182 | ATAACAAGTT | 1

Row | Sequence | switch fluorescence ratio
183 | ATAACAGACC | 1.06
184 | ATAACTCCTT | 1.03
185 | ATAACTCGTA | 1
186 | ATAACTGGCA | 0.968
187 | ATAACTGTTA | 0.973
188 | ATAAGAAGG | 1.01
189 | ATAAGACACC | 1.06
190 | ATAAGCAGAG | 1.01
191 | ATAAGGAGTC | 0.983
192 | ATAAGGATGT | 0.979
193 | ATAAGGCCGG | 1.05
194 | ATAAGTAGC | 0.973
195 | ATAAGTTGGC | 0.967
196 | ATAATAAATG | 0.997
197 | ATAATAACTA | 1
198 | ATAATATTCC | 1.22
199 | ATAATCAAGC | 1
200 | ATAATCTCAG | 1.01
201 | ATAATGCA | 1.02
